Laboratory results as given in a compilation of properties of binary mixtures (doi:10.1007/s10953-010-9562-5).
Some of these densities may be calculated back from excess volumes.

Assay: xn = mol fraction of the nth substance listed
Details: 101 kPa

CCCC[N+]1(C)CCCC1.O=S(=O)([N-]S(=O)(=O)C(F)(F)F)C(F)(F)F + CC1COC(=O)O1
mass density [kg/m3]
Details | 293.15 K | 298.15 K | 303.15 K | 308.15 K | 313.15 K | 318.15 K
x1 = 0.01 | 1230.9 | 1226 | 1221.1 | 1216 | 1211.1 | –
x2 = 0 | – | 1382 | 1378 | 1374 | 1370 | –
x2 = 0.05 | 1386.4 | 1381.2 | 1376.7 | 1372.2 | 1367.7 | –
x2 = 0.11 | 1385.6 | 1380.3 | 1375.5 | 1370.7 | 1365.8 | 1360.8
x2 = 0.16 | 1384.5 | 1379.3 | 1374.3 | 1369.3 | 1364.3 | 1359.2
x2 = 0.21 | 1383.3 | 1378.1 | – | 1367.9 | – | 1357.9
x2 = 0.26 | 1381.8 | 1376.7 | 1371.6 | 1366.5 | 1361.5 | 1356.5
x2 = 0.32 | 1380 | – | 1370 | 1364.9 | – | 1354.9
x2 = 0.37 | 1377.8 | – | 1367.9 | – | 1358 | 1353
x2 = 0.42 | 1375 | – | – | 1360.3 | 1355.4 | 1350.5
x2 = 0.47 | 1371.5 | 1366.6 | 1361.8 | 1356.9 | – | –
x2 = 0.53 | – | 1362.1 | 1357.3 | 1352.4 | 1347.6 | 1342.6
x2 = 0.58 | 1361.1 | 1356.2 | 1351.4 | 1346.6 | 1341.8 | 1336.7
x2 = 0.63 | 1353.7 | – | – | 1339.1 | 1334.2 | 1329.1
x2 = 0.68 | 1344.4 | 1339.5 | 1334.6 | 1329.6 | 1324.7 | 1319.5
x2 = 0.74 | 1332.8 | 1327.8 | – | 1317.9 | 1312.9 | 1307.6
x2 = 0.79 | – | 1313.5 | 1308.4 | 1303.4 | – | 1293
x2 = 0.84 | 1301.1 | 1296 | – | 1285.8 | – | 1275.4
x2 = 0.89 | 1280 | 1274.9 | 1269.8 | 1264.6 | 1259.5 | –
x2 = 0.95 | 1254.8 | 1249.7 | 1244.6 | 1239.5 | 1234.5 | 1229.4
x2 = 0.96 | 1248.3 | 1243.2 | 1238.1 | 1233.1 | 1228 | 1223
x2 = 0.97 | 1242.7 | 1237.6 | 1232.6 | 1227.6 | – | –
x2 = 0.98 | 1236.9 | 1231.9 | 1226.9 | 1221.9 | 1216.9 | 1211.9

CC1COC(=O)O1 (stereo unspecified) + CCCC[N+]1(C)CCCC1.O=S(=O)([N-]S(=O)(=O)C(F)(F)F)C(F)(F)F
x1 = 1
Details | mass density [kg/m3]
298.15 K | 1219.9
308.15 K | 1210
318.15 K | 1200.2
